{
  "source": "PubChem BioAssay AID1347417",
  "about": "(National Center for Advancing Translational Sciences (NCATS), 2020)",
  "note": "Out of some 120,000 compounds screened, about 5,300 (4.4%) were called active. The inconclusive results got no clear call from the source; some entries with a clear call stand among them for comparison. The call rests on the fitted dose curve; in most records, active means well fitted inhibition curve with a large enough effect; inconclusive means small, poorly fitted or top-dose-only effect; inactive means no such curve, though single readings can be large or run the other way. Potencies of inconclusive entries are doubtful fits and often do not repeat. Potency means the concentration at half of the fitted maximal effect; tags describe the fitted curve by direction and shape.",
  "data": [
    {"assay": "qHTS Primary assay for Inhibitors of Plasmodium falciparum Dd2 growth in vitro; further: nearly all actives have a fitted effect of over 65% in size;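 on activity, negative = inhibition: plate controls were DMSO vehicle for no effect and reference drug for full effect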", "conditions": "P. falciparum Dd2 growth, SYBR Green, 72 h; activity, negative = inhibition: at 28.9 µM (top of the series) unless noted; series mostly up to 28.9 µM", "method_in_brief": "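Infected erythrocytes (Dd2, 0.3% parasitemia, 2.5% hematocrit final) are added to compound in RPMI-1640/Albumax II medium, grown 72 h at 37C in low oxygen, then lysed with saponin/Triton-X containing SYBR Green and read by fluorescence.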", "values": [
      {"smiles": "COc1cccc(N2CCN(C(=O)c3noc(-c4ccc(C)cc4)n3)CC2)c1", "activity, negative = inhibition": "inactive: 62%"},
      {"smiles": "COc1cc(-c2nc(CN3CCCC(CN)C3)c(C)o2)cc2c1OCO2", "note": "(centres undefined)", "Potency": "inconclusive: 8.91 µM [inhibitor, partial curve, poor fit]"},
      {"smiles": "O=C(NC1CCN(C(=O)N2CC3CC(C2)[C@H]2CCCC(=O)N2C3)CC1)C1CCC1", "note": "(some centres undefined)", "activity, negative = inhibition": "inactive: 8.23%"},
      {"smiles": "Cc1c(Cl)cccc1NC(=O)c1oc2ccc(S(=O)(=O)N3CCCCCC3)cc2c1C", "Potency": "inconclusive: 17.8 µM [inhibitor, single point]"},
      {"smiles": "COCCc1noc(-c2ccccc2OC2CN(C(=O)c3ccncc3)C2)n1", "Potency": "active: 10 µM"},
      {"smiles": "CN(C)c1cccc(-c2n[nH]c3c2CC(=O)N(CC2CC2)C3)c1", "Potency": "inconclusive: 28.2 µM [inhibitor, single point]"},
      {"smiles": "COc1cccc(C(=O)N(Cc2cccc(F)c2)C2CCS(=O)(=O)C2)c1", "note": "(centres undefined)", "activity, negative = inhibition": "inactive: -6.15%"},
      {"smiles": "CCOC(=O)c1c(NC(C)=O)c2c3c(sc2n1Cc1c(C)cc(C)cc1C)CCCC3", "Potency": "inconclusive: 12.6 µM [inhibitor, partial curve, poor fit]"},
      {"smiles": "O=C(c1cncc(Br)c1)N1CCCCCC1c1nnc(-c2ccccc2)o1", "note": "(centres undefined)", "Potency": "inconclusive: 10 µM [inhibitor, single point]"},
      {"smiles": "CCCN1C(=O)Cc2cc(C(=O)NCc3ccc(Cl)cc3)ccc21", "Potency": "inconclusive: 11.2 µM [inhibitor, single point]"},
      {"smiles": "CC(C)N1CC(Oc2cccc(C(=O)N3CCOCC3)c2)C1", "outcome": "inactive"},
      {"smiles": "COc1cc2c(cc1OCc1ccccc1)NC(=O)C21CCN(c2nc(C)cnc2C)CC1", "Potency": "inconclusive: 2 µM [inhibitor, partial curve, poor fit]"},
      {"smiles": "CCn1c2c(c(=O)n1-c1ccccc1)CCN(C(=O)c1ccnn1C)C2", "activity, negative = inhibition": "inactive: 31.1% [at 44.1 µM]"},
      {"smiles": "COCCN1C(=O)c2ccccc2C(C(=O)Nc2nnc(COC)s2)C12CCCCC2", "note": "(centres undefined)", "activity, negative = inhibition": "inactive: -26%"},
      {"smiles": "CCn1cc(S(=O)(=O)N2CCCC(c3nc(-c4ccccc4)no3)CCNC(=O)CC2)cn1", "note": "(centres undefined)", "activity, negative = inhibition": "inactive: -18.6%"},
      {"smiles": "Fc1ccc(CNCCCSc2nnnn2-c2ccccc2)cc1", "Potency": "inconclusive: 8.91 µM [inhibitor, partial curve, poor fit]"},
      {"smiles": "COc1ccc(Cn2c(C(=O)O)c(CNCc3ccc(OC)cc3OC)c3ccc(C)cc32)cc1", "Potency": "active: 6.31 µM"},
      {"smiles": "CCN(CC)C(=O)[C@@H]1CCC[C@@H](NC(=O)c2cc(C)on2)CN(C)C(=O)C1", "activity, negative = inhibition": "inactive: -10.2% [at 44.1 µM]"},
      {"smiles": "COc1ccc(-c2cc(N3CCCC(NC(=O)c4cccc(Cl)c4)C3)n[nH]2)cc1", "note": "(centres undefined)", "Potency": "inconclusive: 1.58 µM [inhibitor, partial curve, poor fit]"},
      {"smiles": "CCn1cc(C(=O)NCCc2ccc(Cl)cc2)c(=O)c2cc(S(=O)(=O)N(C)C3CCCCC3)ccc21", "Potency": "inconclusive: 3.16 µM [inhibitor, partial curve]"},
      {"smiles": "Cc1nc2ccc(C(=O)Nc3ccccc3C(=O)N3CCCCCC3)cc2[nH]1", "activity, negative = inhibition": "inactive: 7.21%"},
      {"smiles": "CNC(=O)[C@@H](C1CC1)N1CCC[C@H]1C(=O)N1CCCCCC1", "activity, negative = inhibition": "inactive: 17.1% [at 44.1 µM]"},
      {"smiles": "Cc1nonc1CN(C)C(=O)c1csc2nc(-c3cccc(C(F)(F)F)c3)cn12", "Potency": "inconclusive: 14.1 µM [inhibitor, single point]"},
      {"smiles": "O=C1NC(=NC2CCCC2)C2(CCN(Cc3ccccc3)CC2)N1c1cc(F)cc(F)c1", "Potency": "inconclusive: 17.8 µM [inhibitor, single point]"},
      {"smiles": "O=C(Nc1ccccc1F)N1CC(Oc2ccc(-c3noc(-c4ccccc4)n3)cc2)C1", "Potency": "inconclusive: 3.55 µM [inhibitor, partial curve]"},
      {"smiles": "COc1ccc(NC(=O)c2c(NCc3ccc(C)o3)sc3c2CCCCC3)c(OC)c1", "Potency": "active: 11.2 µM"},
      {"smiles": "CCn1c(=O)c2cc(C(=O)Nc3cccc(C(F)(F)F)c3)sc2c2ccccc21", "Potency": "inconclusive: 17.8 µM [inhibitor, single point]"},
      {"smiles": "CCOc1ccc(CN2C[C@@H](CO)[C@H](c3ccncc3)C2)cc1", "Potency": "inconclusive: 17.8 µM [inhibitor, single point]"},
      {"smiles": "CSc1cccc(CN(C)C(=O)c2ccc(CCC(C)(C)O)cc2)c1", "activity, negative = inhibition": "inactive: 1.55%"},
      {"smiles": "CCc1ccc(C2CC(=O)c3c([nH]c(C(=O)OCC4CCCCC4)c3C)C2)cc1", "note": "(centres undefined)", "activity, negative = inhibition": "inconclusive: -173% [inhibitor] [at 5.79 µM]"},
      {"smiles": "CCn1nccc1C(=O)N1C[C@@H](Oc2cccnc2)C[C@H]1C(=O)NC", "activity, negative = inhibition": "inactive: 9.26%"},
      {"smiles": "COc1ccccc1CN1CCC2(CC1)OC(=O)N(Cc1ccccc1F)C2(C)c1ccccc1", "note": "(centres undefined)", "Potency": "active: 3.98 µM"},
      {"smiles": "CCn1ccnc1C1CCN(C(=O)CC2COCCN2)CC1", "note": "(centres undefined)", "Potency": "inconclusive: 14.1 µM [inhibitor, partial curve, poor fit]"},
      {"smiles": "Cc1nn(C)c(C)c1CCNC(=O)C1CCN(C(=O)N2CC3CC(C2)[C@H]2CCCC(=O)N2C3)CC1", "note": "(some centres undefined)", "outcome": "inactive"},
      {"smiles": "CN(C(=O)C1CCCN(c2ncnc3c2nc2n3CCCCC2)C1)c1ccccc1F", "note": "(centres undefined)", "Potency": "inconclusive: 17.8 µM [inhibitor, single point]"},
      {"smiles": "COc1cc(OC)c(NC(=O)CN2C(=O)CCn3nc(-c4cccn4C)cc32)cc1Cl", "Potency": "inconclusive: 17.8 µM [inhibitor, single point]"},
      {"smiles": "COc1ccc(-c2onc(C)c2C(=O)NCCc2ccc(F)cc2)cc1", "activity, negative = inhibition": "inactive: 6.62%"},
      {"smiles": "COc1cc(OC)cc(-c2nc(C3CC(=O)N(c4ccc(C)cc4)C3)no2)c1", "note": "(centres undefined)", "activity, negative = inhibition": "inactive: 6.74%"},
      {"smiles": "O=C(c1cccnc1)N1CCC(n2cc(-c3nc(-c4ccccc4)no3)nn2)CC1", "Potency": "inconclusive: 3.55 µM [inhibitor, single point]"},
      {"smiles": "O=S(=O)(c1ccc(F)cc1)N1CCC2(CC1)CC(N1CCOCC1)CCO2", "note": "(centres undefined)", "outcome": "inactive"},
      {"smiles": "CN1CCCCC(CC(=O)O)C1=O", "note": "(centres undefined)", "activity, negative = inhibition": "inactive: 6.84%"},
      {"smiles": "CCC(=O)N1CCc2cc(Br)cc(S(=O)(=O)CCC(=O)NCCc3ccc(OC)c(OC)c3)c21", "Potency": "inconclusive: 17.8 µM [inhibitor, single point]"},
      {"smiles": "Cn1cc(S(=O)(=O)N2CCCCCC2)cc1C(=O)N1CCN(c2ccc(F)cc2)CC1", "Potency": "inconclusive: 20 µM [inhibitor, partial curve, poor fit]"},
      {"smiles": "CC(C)N1CCC(N2CCCC2C(=O)Nc2cccc(-n3cccn3)c2)CC1", "note": "(centres undefined)", "Potency": "inconclusive: 17.8 µM [inhibitor, single point]"},
      {"smiles": "O=C(C1CCCC1)N1CC2(CCCN(C3CCCCC3)C2)Cc2ccccc21", "note": "(centres undefined)", "Potency": "active: 7.94 µM"},
      {"smiles": "CCC(C(=O)Nc1ccc(C(=O)OC)cc1)n1c(=O)c(-c2ccccc2NC(C)=O)nc2ccccc21", "note": "(centres undefined)", "Potency": "inconclusive: 17.8 µM [inhibitor, single point]"},
      {"smiles": "O=C(Cc1c[nH]c2ncc(-c3ccccc3)cc12)NC1CCOCC1", "Potency": "inconclusive: 31.6 µM [inhibitor, single point]"},
      {"smiles": "Cc1cccc(CN2CCCC3(CCN(Cc4cccc(O)c4)C3)C2)c1", "note": "(centres undefined)", "Potency": "inconclusive: 2.24 µM [inhibitor, partial curve, poor fit]"},
      {"smiles": "Cc1nnc([C@H]2CCN(CCCc3ccccc3)C2)o1", "Potency": "inconclusive: 15.8 µM [inhibitor, partial curve]"},
      {"smiles": "N#Cc1ccc(CN2CCc3n[nH]c(=O)n3CC2)cc1", "Potency": "inconclusive: 0.224 µM [inhibitor, full curve]"},
      {"smiles": "CN1CCCC1c1nc(C2CN(C(=O)CCCc3nc4ccccc4[nH]3)C2)no1", "note": "(centres undefined)", "Potency": "inconclusive: 8.91 µM [inhibitor, partial curve]"},
      {"smiles": "COCc1ccc2c(c1)c(OC(C)(C)C(=O)N1CCOCC1)nn2Cc1cccnc1", "activity, negative = inhibition": "inactive: -19.5% [at 44.1 µM]"},
      {"smiles": "Cc1ccc(Oc2c(C(F)(F)F)oc3c(CN4CCCCC4)c(O)ccc3c2=O)cc1", "Potency": "active: 3.55 µM"},
      {"smiles": "Cc1cccc(C)c1NC(=O)N1CCC(OC2CCN(Cc3ccccc3)CC2)CC1", "Potency": "inconclusive: 8.91 µM [inhibitor, single point]"},
      {"smiles": "Cc1ccc(-c2cccc(C(=O)N3CCCC(O)(CN4CCCC4)C3)c2)o1", "note": "(centres undefined)", "Potency": "active: 11.2 µM"},
      {"smiles": "Fc1ccc(C2Cn3nnc(-c4nc(C5CCCCC5)no4)c3CO2)cc1", "note": "(centres undefined)", "outcome": "inactive"},
      {"smiles": "Cc1ccc(-n2nc(C(=O)N3CCN(c4cc(Cl)ccc4C)CC3)c(=O)n(C)c2=O)cc1", "Potency": "active: 10 µM"},
      {"smiles": "CCCC(=O)Nc1cc(C)c(O)c(-c2nc3ncccc3o2)c1", "activity, negative = inhibition": "inactive: 11%"},
      {"smiles": "Cc1ccsc1C(=O)N1CCCN(C)c2ccccc21", "Potency": "inconclusive: 17.8 µM [inhibitor, single point]"},
      {"smiles": "COCCN1C(=O)c2ccccc2C(C(=O)NCc2ccccc2OC)C12CCCC2", "note": "(centres undefined)", "Potency": "inconclusive: 14.1 µM [inhibitor, partial curve]"},
      {"smiles": "CC1=C[C@@H](CN2CCOCC2)[C@H](C(C)C)C[C@H]1Cc1nnc(C)o1", "Potency": "inconclusive: 12.6 µM [inhibitor, single point]"},
      {"smiles": "COc1cccc(CN(C)C2CCc3ccccc32)c1", "note": "(centres undefined)", "Potency": "inconclusive: 1.41 µM [inhibitor, full curve, poor fit]"},
      {"smiles": "CC(=O)Nc1ccccc1-c1c(C)nn2c1N(C(=O)Cc1cccc(Cl)c1)CCC2", "Potency": "inconclusive: 31.6 µM [inhibitor, single point]"},
      {"smiles": "CC(C)CCNC(=O)c1cccc(Nc2nc3ccccc3n3nnnc23)c1", "activity, negative = inhibition": "inconclusive: -85.5% [inhibitor] [at 5.79 µM]"},
      {"smiles": "NCc1cc(NC(=O)c2ccccn2)cc(C(=O)N2CC[C@H]3CNC[C@H]32)c1", "activity, negative = inhibition": "inactive: 2.13%"},
      {"smiles": "COc1ccc(Cl)cc1NC(=O)c1ccc2nc(Cc3ccccc3)oc2c1", "Potency": "inconclusive: 17.8 µM [inhibitor, single point]"},
      {"smiles": "Cc1ccc(NC(=O)c2cc(S(=O)(=O)NCCC3=CCCCC3)ccc2F)cc1F", "Potency": "inconclusive: 17.8 µM [inhibitor, single point]"},
      {"smiles": "Cc1oc2c(c1C(=O)NC1CCN(C)CC1)CN(Cc1ccc(F)cc1)CC2", "Potency": "inconclusive: 11.2 µM [inhibitor, single point]"},
      {"smiles": "CCn1c2ccccc2c2nnc(N3CCN(c4cc(C)ccc4C)CC3)nc21", "Potency": "inconclusive: 1.58 µM [inhibitor, partial curve, poor fit]"}
    ]}
  ]
}
